Experimental data reported in PMC12820563.
Some of the results follow. The list includes weakly bound sequences.

Target: T1, MBP-FoxP3dN (UniProt Q99JB6)
T1 sequence: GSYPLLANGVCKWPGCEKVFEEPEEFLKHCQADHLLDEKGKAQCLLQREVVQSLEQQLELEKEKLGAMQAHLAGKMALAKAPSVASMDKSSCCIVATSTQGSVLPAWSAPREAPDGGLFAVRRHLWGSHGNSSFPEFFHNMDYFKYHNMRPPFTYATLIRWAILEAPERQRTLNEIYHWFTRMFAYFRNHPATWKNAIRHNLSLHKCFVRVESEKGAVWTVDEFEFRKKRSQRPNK
Test: PD-seq (MBP pull-down with sequencing)
Settings: 20 mM Tris-HCl pH 7.5, 100 mM NaCl, 1.5 mM MgCl2, 0.4 uM protein, 0.1 uM dsDNA library, 30 min, room temperature, amylose pull-down; high values mean tight binding; double strand, one strand shown

| Sequence | binding signal (RPM ratio (pull-down/input)) |
| --- | --- |
| GATGATTGTTCTCCCAGCTGATGAATTCCGTTTCTCGAGTAAACAAATTTTCCTAATCTTTCTGTTCAAGCGCCATCTAC | 1.2 |
| GATGATTGTTCTCCCAGCTGATGAATTAGTCTCGTCGAGTAAACAAATTTTCCTAATCTTTCTGTTCAAGCGCCATCTAC | 0.55 |
| GATGATTGTTCTCCCAGCTGATGAATTGATCTTCTCGAGTAAACAAATTTTCCTAATCTTTCTGTTCAAGCGCCATCTAC | 0.314 |
| GATGATTGTTCTCCCAGCTGATGAATTAGTGGCCTCGAGTAAACAAATTTTCCTAATCTTTCTGTTCAAGCGCCATCTAC | 1.26 |
| GATGATTGTTCTCCCAGCTGATGAATTAACCAGCTCGAGTAAACAAATTTTCCTAATCTTTCTGTTCAAGCGCCATCTAC | 0.22 |
| GATGATTGTTCTCCCAGCTGATGAATTCGCGGAATCGAGTAAACAAATTTTCCTAATCTTTCTGTTCAAGCGCCATCTAC | 0.216 |
| GATGATTGTTCTCCCAGCTGATGAATTATGCTGTTCGAGTAAACAAATTTTCCTAATCTTTCTGTTCAAGCGCCATCTAC | 3.42 |
| GATGATTGTTCTCCCAGCTGATGAATTTACCATCTCGAGTAAACAAATTTTCCTAATCTTTCTGTTCAAGCGCCATCTAC | 0.738 |
| GATGATTGTTCTCCCAGCTGATGAATTTAAGCGGTCGAGTAAACAAATTTTCCTAATCTTTCTGTTCAAGCGCCATCTAC | 0.297 |
| GATGATTGTTCTCCCAGCTGATGAATTTCGTAGCTCGAGTAAACAAATTTTCCTAATCTTTCTGTTCAAGCGCCATCTAC | 0.705 |
| GATGATTGTTCTCCCAGCTGATGAATTTTCTCGCTCGAGTAAACAAATTTTCCTAATCTTTCTGTTCAAGCGCCATCTAC | 0.241 |
| GATGATTGTTCTCCCAGCTGATGAATTTTTCGCATCGAGTAAACAAATTTTCCTAATCTTTCTGTTCAAGCGCCATCTAC | 0.898 |
| GATGATTGTTCTCCCAGCTGATGAATTTGCACGTTCGAGTAAACAAATTTTCCTAATCTTTCTGTTCAAGCGCCATCTAC | 0.786 |
| GATGATTGTTCTCCCAGCTGATGAATTACGAAGATCGAGTAAACAAATTTTCCTAATCTTTCTGTTCAAGCGCCATCTAC | 0.266 |
| GATGATTGTTCTCCCAGCTGATGAATTGAAAACTTCGAGTAAACAAATTTTCCTAATCTTTCTGTTCAAGCGCCATCTAC | 0.334 |
| GATGATTGTTCTCCCAGCTGATGAATTTTTTATGTCGAGTAAACAAATTTTCCTAATCTTTCTGTTCAAGCGCCATCTAC | 0.31 |

| Sequence | binding signal (RPM ratio (pull-down/input)) |
| --- | --- |
| GATGATTGTTCTCCCAGCTGATGAATTCTGATATTCGAGTAAACAAATTTTCCTAATCTTTCTGTTCAAGCGCCATCTAC | 2.13 |
| GATGATTGTTCTCCCAGCTGATGAATTCTACCCTTCGAGTAAACAAATTTTCCTAATCTTTCTGTTCAAGCGCCATCTAC | 0.298 |
| GATGATTGTTCTCCCAGCTGATGAATTCAACATCTCGAGTAAACAAATTTTCCTAATCTTTCTGTTCAAGCGCCATCTAC | 0.716 |
| GATGATTGTTCTCCCAGCTGATGAATTCCCTGATTCGAGTAAACAAATTTTCCTAATCTTTCTGTTCAAGCGCCATCTAC | 0.239 |
| GATGATTGTTCTCCCAGCTGATGAATTGAATCTGTCGAGTAAACAAATTTTCCTAATCTTTCTGTTCAAGCGCCATCTAC | 0.323 |
| GATGATTGTTCTCCCAGCTGATGAATTCGCCTAATCGAGTAAACAAATTTTCCTAATCTTTCTGTTCAAGCGCCATCTAC | 0.346 |
| GATGATTGTTCTCCCAGCTGATGAATTCGTACGATCGAGTAAACAAATTTTCCTAATCTTTCTGTTCAAGCGCCATCTAC | 0.333 |
| GATGATTGTTCTCCCAGCTGATGAATTCACCCTGTCGAGTAAACAAATTTTCCTAATCTTTCTGTTCAAGCGCCATCTAC | 0.257 |
| GATGATTGTTCTCCCAGCTGATGAATTAGTAACTTCGAGTAAACAAATTTTCCTAATCTTTCTGTTCAAGCGCCATCTAC | 0.664 |
| GATGATTGTTCTCCCAGCTGATGAATTGTCTTGGTCGAGTAAACAAATTTTCCTAATCTTTCTGTTCAAGCGCCATCTAC | 0.404 |
| GATGATTGTTCTCCCAGCTGATGAATTAGATCGTTCGAGTAAACAAATTTTCCTAATCTTTCTGTTCAAGCGCCATCTAC | 0.405 |
| GATGATTGTTCTCCCAGCTGATGAATTGGTGCTGTCGAGTAAACAAATTTTCCTAATCTTTCTGTTCAAGCGCCATCTAC | 0.636 |
| GATGATTGTTCTCCCAGCTGATGAATTTGAGAGTTCGAGTAAACAAATTTTCCTAATCTTTCTGTTCAAGCGCCATCTAC | 0.59 |
| GATGATTGTTCTCCCAGCTGATGAATTGCCGGGCTCGAGTAAACAAATTTTCCTAATCTTTCTGTTCAAGCGCCATCTAC | 0.363 |
| GATGATTGTTCTCCCAGCTGATGAATTAGACCTCTCGAGTAAACAAATTTTCCTAATCTTTCTGTTCAAGCGCCATCTAC | 0.389 |
